Experimental data taken from the supplement of paper PMC3334620.
Whole data set: some 33,000 sequences, median “E-score (-0.5 to 0.5)” near -0.054, cut for the highest 2% near 0.39. Some of the results follow.

These sequences were tested against Ylr278c (UniProt Q05854) (assay: PBM E-score (8-mer binding enrichment) (E-score (-0.5 to 0.5)); higher = stronger / more preferred TF binding; most listed sequences are background and not binding sites). Settings: protein concentration: 200 nM; construct: GST-DNA-binding domain.
Procedure, shortened: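 Bound GST-tagged yeast transcription factors, applied at about 100-200 nM to double-stranded universal all-10-mer Agilent arrays, were detected with fluorescent anti-GST. Scans were normalised with masliner. A modified Wilcoxon-Mann-Whitney statistic, the E-score, was assigned to each ungapped eight-base word pooled with its reverse complement by the Universal PBM Analysis Suite.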
For AACTTTCC, the “PBM E-score” value was 0.172.
With ACGGAGAC the “PBM E-score” value was 0.39.
GCTAGCGA was tested, and the “PBM E-score” value was -0.238.
ACAAAGCG was tested, and the “PBM E-score” value was -0.0993.
For GATTAACA, the “PBM E-score” value was 0.0687.
ACCGAACC was tested, and the “PBM E-score” value was 0.129.
ATGCTAGA was tested, and the “PBM E-score” value was -0.33.
With GGCGTATA the “PBM E-score” value was -0.0615.
In the case of AAGTTATA, the “PBM E-score” value is reported as -0.108.
In the case of ACAGCCGT, the “PBM E-score” value is reported as -0.0703.
For CGTAGGAA, the “PBM E-score” value was -0.0652.
In the case of ATTAGCAG, the “PBM E-score” value is reported as -0.0479.
With AGTTTCGA the “PBM E-score” value was -0.0003.
In the case of CCATTGGC, the “PBM E-score” value is reported as -0.196.
TCATTAGA was tested, and the “PBM E-score” value was -0.111.
For AGACCTGG, the “PBM E-score” value was -0.147.
For ATTACTAC, the “PBM E-score” value was -0.218.
For TCGCGCCA, the “PBM E-score” value was 0.0183.
With ATGGATGG the “PBM E-score” value was -0.115.
With CGGCTCGA the “PBM E-score” value was 0.0612.
With ATTACCGG the “PBM E-score” value was 0.374.
With TCTAGTAA the “PBM E-score” value was 0.0314.
CATCCTGG was tested, and the “PBM E-score” value was -0.17.
For AGCGTGCC, the “PBM E-score” value was -0.0339.
With ACTGGCTA the “PBM E-score” value was -0.169.
With CTCAGTAC the “PBM E-score” value was -0.0964.
GAGTTCCA was tested, and the “PBM E-score” value was 0.102.
In the case of CGCCCCAA, the “PBM E-score” value is reported as 0.196.
In the case of GCTGTCCC, the “PBM E-score” value is reported as -0.0872.
For CGTTTCTC, the “PBM E-score” value was 0.0785.
In the case of AGATAGGA, the “PBM E-score” value is reported as -0.0363.
In the case of ACATCGAA, the “PBM E-score” value is reported as -0.0874.
For AGGAGTAG, the “PBM E-score” value was -0.00627.
In the case of CAACAAGA, the “PBM E-score” value is reported as -0.0902.
AGGACCAA was tested, and the “PBM E-score” value was -0.0013.
AACTCCAA was tested, and the “PBM E-score” value was -0.00212.
With CCACCTAC the “PBM E-score” value was -0.238.
In the case of CATAAAAG, the “PBM E-score” value is reported as -0.233.
ACTTACAT was tested, and the “PBM E-score” value was -0.214.
For AGAAACAC, the “PBM E-score” value was -0.0852.
For CCCGCTAC, the “PBM E-score” value was 0.0482.
With AAAAGGAT the “PBM E-score” value was -0.136.
In the case of GACGTCAC, the “PBM E-score” value is reported as -0.0267.
With ACCATAAC the “PBM E-score” value was -0.207.
In the case of CCTCTGTC, the “PBM E-score” value is reported as -0.146.
In the case of CACGTAAA, the “PBM E-score” value is reported as -0.241.
ACTACCCT was tested, and the “PBM E-score” value was -0.178.
ACCCTTAA was tested, and the “PBM E-score” value was -0.249.
For AGCTGCAC, the “PBM E-score” value was -0.0789.
With GACTCCAC the “PBM E-score” value was -0.0152.
For CTAAGAAA, the “PBM E-score” value was -0.172.
With CCAACCAC the “PBM E-score” value was 0.0508.
AACTCACA was tested, and the “PBM E-score” value was -0.153.
For TCGGGCCA, the “PBM E-score” value was 0.0968.
For ACTCTTTG, the “PBM E-score” value was -0.193.
In the case of AGCGTTTG, the “PBM E-score” value is reported as -0.139.
With GGGCGGGA the “PBM E-score” value was 0.313.
With CGGAGTGC the “PBM E-score” value was 0.438.
In the case of ACAGGGGT, the “PBM E-score” value is reported as -0.228.
For AGCAGCAA, the “PBM E-score” value was -0.0384.
With GCAGGCAC the “PBM E-score” value was -0.167.
ACGACCGT was tested, and the “PBM E-score” value was -0.27.
In the case of AGGATCGC, the “PBM E-score” value is reported as -0.0596.
In the case of CGAGTACA, the “PBM E-score” value is reported as 0.0348.
In the case of ACCAACAC, the “PBM E-score” value is reported as -0.124.
For CCGTCCAA, the “PBM E-score” value was 0.124.
In the case of AAAACAAC, the “PBM E-score” value is reported as -0.209.
In the case of CAGGTTGA, the “PBM E-score” value is reported as -0.124.
With CCTCCATC the “PBM E-score” value was -0.232.
With CACATAGG the “PBM E-score” value was -0.127.
In the case of AAAATAAG, the “PBM E-score” value is reported as -0.139.
In the case of ATTGCTTC, the “PBM E-score” value is reported as 0.0619.
With CGAACGCA the “PBM E-score” value was 0.106.
For GCGCCTCA, the “PBM E-score” value was 0.112.
For ATCGCGGC, the “PBM E-score” value was 0.275.
For CCATGCAG, the “PBM E-score” value was -0.192.
In the case of ACATTTCT, the “PBM E-score” value is reported as 0.0273.
For AGGGCAAC, the “PBM E-score” value was -0.0713.
With CACTCAAG the “PBM E-score” value was -0.321.
With AACCGGCA the “PBM E-score” value was 0.215.
In the case of CCCTTAAA, the “PBM E-score” value is reported as -0.171.
For ATTTCCAG, the “PBM E-score” value was 0.0814.
For CCCATATC, the “PBM E-score” value was 0.021.
With GCTTCTAA the “PBM E-score” value was -0.246.
CGCAACAA was tested, and the “PBM E-score” value was 0.0125.
With CAAAGTTA the “PBM E-score” value was -0.0735.
With ATCTTAAT the “PBM E-score” value was -0.187.
CTGGTTAC was tested, and the “PBM E-score” value was -0.169.
For CAAGCGAA, the “PBM E-score” value was -0.071.
ATTTGGGG was tested, and the “PBM E-score” value was 0.0181.
With TCGGCCCA the “PBM E-score” value was 0.186.
GGCTCGGA was tested, and the “PBM E-score” value was 0.38.
In the case of GAGGCGAC, the “PBM E-score” value is reported as -0.103.
With AGCAACTA the “PBM E-score” value was -0.0189.
For CCTTAGTC, the “PBM E-score” value was -0.103.
In the case of TCGTTACA, the “PBM E-score” value is reported as -0.237.
For GGTAGGGA, the “PBM E-score” value was -0.0785.
In the case of AAGGCCGG, the “PBM E-score” value is reported as 0.434.
For GCTTAGAA, the “PBM E-score” value was -0.11.
In the case of AATCCATC, the “PBM E-score” value is reported as -0.141.
With CTGTAGCA the “PBM E-score” value was -0.187.
For TCGCTGCA, the “PBM E-score” value was -0.143.
CTGGATTA was tested, and the “PBM E-score” value was 0.218.
In the case of TTACACAA, the “PBM E-score” value is reported as -0.0144.
For CTGTAGAC, the “PBM E-score” value was -0.066.
For ATACTCGA, the “PBM E-score” value was -0.244.
In the case of CGCGCGCG, the “PBM E-score” value is reported as 0.226.
In the case of CACGGAAG, the “PBM E-score” value is reported as 0.228.
For GAGCGCGA, the “PBM E-score” value was 0.117.
